Among the data in the RNAGym collection of RNA variant scans (doi:10.1093/nar/gkz1192) are self-cleavage values, retold here.

First the molecules themselves.
B1: CPEB3 Ribozyme (parent)
chain: UAACAGGGGGCCACAGCAGAAGCGUUCACGUCGCAGCCCCUGUCAGAUUCUGGUGAAUCUGCGAAUUCUGCUGUAUAUCUC

Read counts are not given, so values of variants with three or more changes are uncertain.

Variants of B1 are the subject of the data set. Description: self-cleavage, relative activity (ratio to wild type); higher = more cleavage; in vitro, sequencing. An outline of the steps:
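Relative activity compares each variant's cleaved/total read fraction with that of the unmutated ribozyme. To get these fractions, barcoded CPEB3 ribozyme libraries from rounds of error-prone PCR were transcribed with T7 RNA polymerase for 5 hours at 37°C and then given 15 min of DNase I treatment before EDTA was added. The RNAs were reverse transcribed with template switching and sequenced on Illumina, and DNA sequencing linked barcodes to variants. A minimum of 5 reads applied, and three batches were averaged.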
As to G7A A21G U25C C29U C40U U43C U51C, the self-cleavage turned out to be 0.04. Then G6C U41A A57G, with 0.1; and G7U A18G U48C, with 0.22.

For G7A A21G A47G A65G, the self-cleavage stood at 0.13.

G7U A18G A21G U31C: the self-cleavage worked out at 0.07.

As to G8A A13G U31C U67G, the self-cleavage was 0.09. Then G7A C39U U54A U58C U60C U78A, with 0.05; and G7A U51G U69C, with 0.09.

On to G8A C12U A13U A35U U41A, for which the self-cleavage was determined as 0.04. On to G6C C34A U41A C79U, for which the self-cleavage is 0.36. Then G6A U48C U69C A75G U80A, with 0.08. Then G7U C29U G30A C40A, with 0.06.

In the case of G6A U43A A45G G61C, the self-cleavage stood at 0.17. Regarding G8A C11U U26G U60G A64U, the self-cleavage worked out at 0.04. Then G8A A21G U51A U60C A64U A77G, with 0.04. Then G6U G9A C23A U25G A56C, with 0.2; and G7C A15U U72C U78C, with 0.65; and G8A G52C U69G, with 0.05.

As to G8A A21G C68G, the self-cleavage stood at 0.07. Then G8A A47U A56G U60C U66G, with 0.06; and G8A A28U G63A, with 0.21; and G6U U25C U51C G52U U60A U69C U72A, with 0.

As to G7A U49A U54A A75G, the self-cleavage was 0.04. Consider G8A A21G A28U U49C U72A, for which the self-cleavage amounted to 0.03. On to G7C A28G C34U U67A U76C, for which the self-cleavage came to 0.07. Then G6U A18G A21G U41C U78C, with 0.08; and G6U U41C U48C, with 0.33; and G7A A35G U41G U51C U69C, with 0.05.

As for G6C A15G U31C U43A, the self-cleavage was 0.04. Then G6C A35G U41A U72A, with 0.15; and G7A C12G A28U U80C, with 0.19; and G7A U43C U60C U66C U80C, with 0.06.

Turning to G8A C29A G36A U43A U51G U78C, the self-cleavage was 0.05. As for G7A A15G U67A U76C, the self-cleavage is 0.05. Consider G6A U41C A75G, for which the self-cleavage is 0.4.

G7A C11U U51C: the self-cleavage amounted to 0.11.

With G6C U25C U51A U67C U69A U74G, the self-cleavage was found to be 0.06. As for G6C A21G U43C A57G A75U U80C, the self-cleavage was determined as 0.06.

Regarding G6U G7A A13G U51C, the self-cleavage came to 0.37. G8A A15U U41C: the self-cleavage is 0.37. As for G8A A47G U48A U67C, the self-cleavage amounted to 0.07. As to G6U U48C G52U U67A U69C, the self-cleavage is 0.23. Then G8A A18U A20U, with 0.49; and G8A U25C U66C, with 0.07; and G7U A28U U48C, with 0.07. As for G8A A15G U48C U67C A75G, the figure is 0.11. As for G8A C32U U72A, the figure is 0.07; as for G8A U25C C38U A45G, 0.32. As to G7A A35U A47C A56U U69A U72C, the self-cleavage stood at 0.07.

Take G7A U48C G55A: the self-cleavage came out at 0.19. As for G7U A21G U31C A45C U49A U69A, the figure is 0.05; as for G8A A35U U72C U74C, 0.06; as for G8A G10A U31C A57G, 0.05. As for G7C A18G A45U U60C U69C, the figure is 0.06. As for G7C A21G U26C U41C A65G U66A U69A, the figure is 0.28; as for G7U A45G A56U A64G U67A, 0.14; as for G7A G16C A21G G36A U66C U69C, 0.09. On to G7C G52C U67C U78C, for which the self-cleavage stood at 0.18.

Turning to G8A A20G A28G C59A G73C, the self-cleavage was 0.07.

G6U A15G C17U A35U U43C U49C G61C: the self-cleavage was determined as 0.12. As to G8A A13U G42A A47U U80C, the self-cleavage was found to be 0.2. Then G6U U41C U49C G52A, with 0.26; and G8A A21C G33C A56G A57G, with 0.4; and G6U A20U U25C U72C, with 0.54.

Turning to G8A A15U U25G U26C U49A A75U, the self-cleavage worked out at 0.04. Then G6U A35G A47U U66C, with 0.25; and G8A G24A A56G A64U U66C, with 0.06. As for G6U U43C A77G, the self-cleavage turned out to be 0.2. As for G7U A35G A47G, the figure is 0.22.

In the case of G8A A20G A45U U67C U69A U80C, the self-cleavage was 0.05. Then G7C A13U A28G C34U C39A U69C U76C, with 0.04; and G6U U25C U49C U51C A65G, with 0.19. Then G8A A15G U43A A57G G73U, with 0.09; and G7U U31C A45G U51A U58C G63U A65G, with 0.04; and G8A A15G A21G A47U, with 0.32. Then G7A A15U A18G C23G U54C U72C, with 0.04; and G7A A18U C23A A56G A64U U69C A77U, with 0.05; and G8A A28U U54C A77U, with 0.11. With G8A A15U U48C U51C A57G U69C, the self-cleavage was determined as 0.05.

Consider G6A U43A A64G U66A U74C, for which the self-cleavage worked out at 0.04. Then G6U A18G U43C U51G A65G G73C, with 0.05; and G6U A35U U43C G61C, with 0.16. In the case of G8A A20U U60C, the self-cleavage amounted to 0.04. Then G8A G46C A77U, with 0.13. Then G8A A13U G19U U67C U72C, with 0.07. As for G8A A45G G53C U69C U78G, the figure is 0.05; as for G7A G24A U25C G42A U74A, 0.06; as for G7A U31C A57G, 0.08. For G7A U26A U54A A57G A65G U69C A77G, the self-cleavage is 0.06.

Regarding G6A U41A A45U U51A U58G, the self-cleavage is 0.24. As for G7U A18U G36U A45U, the figure is 0.04.

Consider G8A A21G A45C U54C U66C, for which the self-cleavage was found to be 0.05. With G6A U26C U51C U69C A75G, the self-cleavage amounted to 0.06. As for G7U G8A A13G G42A U48C A56U, the figure is 0.1. As for G8A A28U U66C U76A, the figure is 0.24; as for G6U A18G A35U U49C, 0; as for G6C U41G U49A U74C U78A, 0.22.

Take G7C U54C A56U U60C U74C A75G: the self-cleavage amounted to 0.05. Then G8A A18U G33A U72C, with 0.05; and G7U G19U C23A G30A A35U G36A C38A, with 0.06; and G6A U67C U69A U72C, with 0.06. As for G8A A15U U25C A35U, the figure is 0.05. As for G7U A20U U72A A75C, the figure is 0.08. G8A G19U U51C: the self-cleavage is 0.16. Then G6U A15G A35U U72A, with 0.06; and G8A A18U A57G U76C U80C, with 0.04. Then G6U A13C G16C U69A, with 0.21. Then G8A A56G U80C, with 0.05; and G7U U26C C27U, with 0.05; and G7C A28G C34A U80C, with 0.08. G7C U31C U69C: the self-cleavage turned out to be 0.06.

In the case of G6U C17U A20G U25C A47G, the self-cleavage stood at 0.34. On to G8A A15G U51A A56G A64G, for which the self-cleavage was found to be 0.05. As for G6U A21C U48C, the figure is 0.05; as for G6A U72C U76C, 0.67; as for G7C A13G A20G U25C G61A, 0.1. As for G7A U49C U51A A75G, the figure is 0.07; as for G7C A35G U43A A47C U67A U80A, 0.05; as for G8A A21G U26C U41C, 0.13. Consider G8A G10A A13U A35U U80C, for which the self-cleavage was determined as 0.02. As for G7U A21G U49C A65G U76A, the figure is 0.11; as for G7U C23U G30C A47U, 0.05; as for G7U A15U U80C, 0.25. Then G7A C38A U41G A56G A57G, with 0.08; and G6A U26C U51A A56G U76A U78C, with 0.07; and G6C C32A A35G U43C U69C, with 0.23. For G7C A18C U41C U67A A75G, the self-cleavage is 0.02. As for G8A C23U U26C U54C, the figure is 0.06. For G8A A28G U49C U72A A77G, the self-cleavage turned out to be 0.05. Regarding G7C G8A A21U U25G U26A A56G U72A, the self-cleavage is 0.06. For the variant G8A C14A C29U U58C U60C U72C, the self-cleavage amounted to 0.09. As for G6U A15U A35G U51A U60A A75C, the figure is 0.17; as for G7A A20G U25C A35U, 0.03. Then G8A A35C C38A, with 0.05; and G8A G52A U54C, with 0.08; and G7A A15U G36U U51C, with 0.06. As for G8A C23A U26C A64U U66A, the figure is 0.07; as for G7A C23G A35U C37A A57G U74A, 0.02. Turning to G7U A18G A21U C44U A56G U60G U67C, the self-cleavage amounted to 0.08. Then G7U G42U A64C, with 0.1; and G8A A28U U58A, with 0.07. Then G8A A13U A20G U31A A35U U51C, with 0.06; and G8A A18G A35U U51A A56U U58C U69A, with 0.05; and G6C G16C A20G U25C U49C A56U, with 0.27. As for G8A G19A G52A A64G, the figure is 0.18.

Take G8A A13U A15G: the self-cleavage amounted to 0.12. Then G7C C32A A77U, with 0.24; and G8A A18G A20G U26A U43C U67A U69G, with 0.03; and G8A A13U U31A U51A U58C U67A, with 0.05. Consider G6U A20U A57U, for which the self-cleavage amounted to 0.09. G8A A18G U25C: the self-cleavage was determined as 0.1. Then G7C A35C U48A, with 0.04.

In the case of G8A A18U C23U, the self-cleavage stood at 0.05. Consider G8A A13C A15C C38U U49A, for which the self-cleavage was determined as 0.13. Then G8A A15C A18U U31A, with 0.05; and G8A G33A A57G, with 0.16; and G6A U48C A75U, with 0.08. As to G6A U54C C79U, the self-cleavage turned out to be 0.

For G8A C50U U51C U54C, the self-cleavage is 0.1. Then G8A A28C U43C G63A, with 0.08; and G8A G10A G30A U78C, with 0.07; and G7U U72A A77U, with 0.18. As for G8A A20G U67A, the figure is 0.07; as for G6U A15U U31C A47G, 0.08. On to G7C A13U C29U A35G U54A, for which the self-cleavage came to 0.08.

On to G7C A35C G36A A45U U49C, for which the self-cleavage amounted to 0.07. Regarding G7A A15U U26A U54G, the self-cleavage amounted to 0.07.
